# From paper PMC4336329 (PLoS ONE, 2015)
# Among all 310,000 compounds or so, about 2,200 (0.71%) showed an effect of 50% or more. The effect is printed as a negative number. The list shows a part of the results.
# Target: human ether-à-go-go-related gene (hERG) potassium channel (human, UniProt Q12809)
# Assay: primary screen, population patch clamp on CHO cells stably expressing hERG
# human ether-à-go-go-related gene (hERG) potassium channel, sequence (Q12809 whole entry, looked up): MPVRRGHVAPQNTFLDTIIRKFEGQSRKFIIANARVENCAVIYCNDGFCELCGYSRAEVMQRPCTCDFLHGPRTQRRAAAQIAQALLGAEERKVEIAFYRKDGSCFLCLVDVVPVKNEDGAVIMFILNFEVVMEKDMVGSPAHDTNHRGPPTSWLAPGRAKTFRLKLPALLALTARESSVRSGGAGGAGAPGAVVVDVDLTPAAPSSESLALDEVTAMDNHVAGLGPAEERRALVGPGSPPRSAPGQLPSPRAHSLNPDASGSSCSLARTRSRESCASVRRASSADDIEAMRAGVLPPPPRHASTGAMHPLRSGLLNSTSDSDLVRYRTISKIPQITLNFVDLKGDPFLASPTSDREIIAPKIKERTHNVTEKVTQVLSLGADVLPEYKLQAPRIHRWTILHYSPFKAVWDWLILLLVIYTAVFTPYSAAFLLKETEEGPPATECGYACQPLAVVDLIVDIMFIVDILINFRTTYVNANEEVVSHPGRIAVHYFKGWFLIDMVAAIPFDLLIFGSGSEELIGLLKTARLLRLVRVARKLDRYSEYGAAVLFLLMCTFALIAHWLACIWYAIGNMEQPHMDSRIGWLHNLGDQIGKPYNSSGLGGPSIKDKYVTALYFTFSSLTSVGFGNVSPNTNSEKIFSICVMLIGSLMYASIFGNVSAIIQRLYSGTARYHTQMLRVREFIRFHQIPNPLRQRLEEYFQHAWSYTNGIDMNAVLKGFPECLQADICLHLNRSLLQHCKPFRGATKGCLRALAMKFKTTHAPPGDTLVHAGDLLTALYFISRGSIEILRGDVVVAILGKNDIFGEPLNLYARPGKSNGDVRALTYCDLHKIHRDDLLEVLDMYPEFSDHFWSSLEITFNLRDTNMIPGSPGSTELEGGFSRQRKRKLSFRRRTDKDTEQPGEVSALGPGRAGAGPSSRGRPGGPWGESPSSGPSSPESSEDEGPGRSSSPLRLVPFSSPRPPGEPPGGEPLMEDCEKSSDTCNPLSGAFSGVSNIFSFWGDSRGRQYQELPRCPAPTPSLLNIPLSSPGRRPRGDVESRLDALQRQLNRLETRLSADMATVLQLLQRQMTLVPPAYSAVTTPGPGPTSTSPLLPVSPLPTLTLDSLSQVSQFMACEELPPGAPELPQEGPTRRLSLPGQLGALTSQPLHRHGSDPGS
row,Compound,"hERG current change (%, negative = inhibition) at 1uM"
1,Clc1ccccc1CSc1nnc(-c2ccccn2)n1Cc1ccco1,0.889%
2,O=C(COc1ccc(-c2ccccc2)cc1)N/N=C/c1ccccc1Br,16.3%
3,N#CC(C#N)=NNc1ccc(-n2ccc(C(F)(F)F)n2)cc1,-24.2%
4,COCCn1c(=O)[nH]c2cc(C(=O)N3CCN(c4cc(C)ccc4C)CC3)ccc2c1=O,7.26%
5,Cc1cc(C)c(CN2CCCC(CNC(=O)c3ccc(F)cc3)C2)c(-n2cccn2)c1 (stereo not shown),-85.4%
6,NC(=S)N/N=C1\CCOc2ccc(F)cc21,4.33%
7,CCCCCCCN=C(C)c1ccccc1O,13.6%
8,CCc1cccc(C)c1NC(=O)CCCn1c(=O)c2cccn2c2cccnc21,4.77%
9,CC(=O)Nc1cc2c(cc1C(=O)c1ccccc1)OCCO2,-0.64%
10,COc1cccc(C(=O)Nc2ccc(N3CCN(S(C)(=O)=O)CC3)cc2)c1,17%
11,Fc1ccc(C2=Nn3c(nnc3-c3ccco3)SC2)cc1,12%
12,CC(C)(C)c1cc(C(=O)NCCN2CCCC2)cc(C(C)(C)C)c1,8.86%
13,O=[N+]([O-])c1ccccc1S(=O)(=O)c1ccccc1,11.6%
14,COc1ccc2oc(C(=O)NCCN3CCOCC3)c(C)c2c1OC,9.86%
15,O=C(NNc1ccccc1[N+](=O)[O-])Nc1ccccc1,10.2%
16,O=C(CN1C(=O)C2CC=CCC2C1=O)Nc1nc2ccccc2[nH]1 (stereo not shown),7.86%
17,CC(=O)c1ccc(OC(=O)c2nc(-c3ccccc3)oc2C)cc1,17.3%
18,COc1ccc(Cc2nnc(SCC(=O)Nc3ccccc3C#N)o2)cc1,-8.61%
19,O=C(NCCc1nc(-c2ccccc2Cl)no1)C1CCCCC1,6.51%
20,Cc1cccc(C(=O)NNC(=O)c2ccccc2)c1,4.98%
21,COc1cc(NC(=O)Cc2ccc([N+](=O)[O-])cc2)c(C(=O)O)cc1OC,2%
22,CCN(CC)S(=O)(=O)c1cccc(N2CC(O)=C(c3ccccc3)C2=N)c1,12.3%

row,Compound,"hERG current change (%, negative = inhibition) at 1uM"
1,O=C(Nc1ccc(Cl)c(S(=O)(=O)N2CCCCC2)c1)c1ccco1,5.63%
2,CCN(CC)C(=O)COc1coc(CN2CCN(c3cccc(Cl)c3)CC2)cc1=O,0.464%
3,Cc1cc(/C=C2/NC(=O)NC2=O)c(C)n1C,12.1%
4,COc1ccccc1N1CCN(C(=O)c2ccc(Cl)c(S(=O)(=O)N3CCOCC3)c2)CC1,1.45%
5,COC(C(=O)Nc1ccc(Br)cc1F)c1ccccc1 (stereo not shown),19.3%
6,COC(=O)c1ccccc1NC(=O)CN1CCN(C(=O)c2ccco2)CC1,-7.42%
7,CC1CCN(c2nnc(NC(=O)Cn3c(=O)oc4ccccc43)s2)CC1,15.1%
8,CCOC(=O)C1CCN(C(=O)CN(c2ccc(Oc3ccccc3)cc2)S(C)(=O)=O)CC1,4.25%
9,CCOC(=O)CCCNC(=O)CN1C(=O)NC(CCc2ccccc2)C1=O (stereo not shown),3.35%
10,CCCOc1ccc(CCC(=O)N/N=C/c2ccncc2)cc1,6.16%
11,Cc1cccc(NC(=O)NNC(=O)COc2ccc3ccccc3c2)c1,17.8%
12,Cc1cc(NS(=O)(=O)c2ccc(NC(=O)C(CC(C)C)N3C(=O)c4ccccc4C3=O)cc2)nc(C)n1 (stereo not shown),16.6%
13,O=c1[nH]c(C2CCN(S(=O)(=O)/C=C/c3ccccc3)CC2)nc2c1nnn2Cc1ccc(F)cc1,12.5%
14,CCOCCn1c(C)c(C(=O)OCC)c2cc(O)c3ccccc3c21,11.1%
15,CCOc1ccc(NC(=O)c2ccc(N3CC4CC(C3)c3cccc(=O)n3C4)c(NC(=O)c3cccnc3)c2)cc1 (stereo not shown),11.8%
16,CCN(CC)C(=O)C(Cc1ccccc1)N1C(=O)c2ccccc2C1=O (stereo not shown),7.79%
17,OCC1CCCN1C(=S)Nc1ccccc1 (stereo not shown),14%
18,O=C(Nc1nnc(SCC(=O)N2CCOCC2)s1)C1CC(=O)N(c2ccc(F)cc2)C1 (stereo not shown),7.58%
19,COc1cc(OC)cc(N(C(=O)c2snc(C(N)=O)c2N)C(C(=O)NCC2CCCO2)c2ccc(C)o2)c1 (stereo not shown),7.37%
20,Cc1ccc(NC(=O)CNCc2cccs2)cc1Br.Cl,13.9%
21,COc1cc(-c2cc(-c3ccc(N)cc3)[nH]c(=O)c2C#N)cc(OC)c1OC,14.6%
22,COCCSc1ccccc1C(=O)Nc1ccc2c(c1)OCO2,8.78%

row,Compound,"hERG current change (%, negative = inhibition) at 1uM"
1,CC(C)[C@H](NC(=O)[C@@H]1CSC2c3ccccc3C(=O)N21)C(=O)NCc1ccncc1 (stereo partly shown),13.4%
2,C=CCSc1ccsc1C(=O)O,5.39%
3,Cc1cc(NC(=O)COc2ccc([N+](=O)[O-])cc2)no1,7.64%
4,Cc1ccc(C(=O)CCC(=O)Nc2ccc(C)cn2)cc1,14.4%
5,COc1ccc(C(=O)NCCc2c[nH]c3ccccc23)cc1S(=O)(=O)N1CCOCC1,10.8%
6,Cc1cc(C)n(C(=O)Cn2nc(C)c(Br)c2C)n1,14.9%
7,CCN(CC(=O)NCc1cccs1)C(=O)c1ccc(-c2ccccc2F)o1,-7.69%
8,O=C(O)c1cc2c(ccc3ccccc32)oc1=O,5.68%
9,COCCCn1c(N)c(C(=O)OC(C)COC)c2nc3ccccc3nc21 (stereo not shown),5.42%
10,C=C(C)CSc1nnc(CCNC(=O)OC(C)(C)C)o1,5.7%
11,CCOc1cccc(CN2CCC(n3nccc3NC(=O)CCCc3ccccc3)CC2)c1,9.19%
12,CSc1sc(-c2ccnc(=S)[nH]2)c(-c2ccccc2)c1C#N,15.8%
13,Cc1ccc(/C=C/C(=O)Nc2cc(=O)n(C)c(=O)n2C)o1,5.57%
14,CCC(=O)NNC(=O)c1c(O)c2ccccc2[nH]c1=O,10.6%
15,Clc1cccc(Cn2ncc3ccccc32)c1,11.4%
16,Cn1c(=O)cc(SCC(=O)NCCCN2CCN(c3ccc(F)cc3)CC2)c2ccccc21,-39.8%
17,O=[N+]([O-])c1cccc(/C(=N/N=C/c2ccccc2Br)C23CN4CN(CN(C4)C2)C3)c1,3.43%
18,CN(CCOCCOc1ccc2ccccc2c1)Cc1ccccc1,9.46%
19,COc1ccc(C(=O)c2sc3nc(-c4ccccc4)ccc3c2N)cc1OC,13.4%
20,Cc1ccc(-n2c(=O)c3c4c(sc3n3c(=S)[nH]nc23)CCC4)cc1,17.7%
21,CN(CCc1ccccn1)C(=O)c1cccnc1Oc1ccccc1,9.66%
22,CN(Cc1ccccc1)C1CCCN(C(=O)COc2ccccc2Cl)C1 (stereo not shown),-8.17%

row,Compound,"hERG current change (%, negative = inhibition) at 1uM"
1,CC(=O)Nc1ccccc1OCC(=O)N(Cc1ccccc1)C(C)C,15.2%
2,CC(OC(=O)Cn1nnc2ccccc21)C(=O)NC1CCCC1 (stereo not shown),6.75%
3,N#Cc1ccc(CN2CCN(C(=O)Cn3nc(C(N)=O)c4ccccc4c3=O)CC2)cc1,-6.49%
4,O=C(CCn1c(=O)[nH]c2ccccc2c1=O)NCCCN1CCN(c2cccc(Cl)c2)CC1,-30%
5,COc1ccc(N2CCN(C(c3ccccc3)c3nnnn3Cc3ccc(F)cc3)CC2)cc1 (stereo not shown),3.32%
6,CCOc1cc(NC(=S)NCCCN2CCOCC2)c(OCC)cc1NC(=O)C(C)C,16.2%
7,O=[N+]([O-])c1ccc(SCc2ccco2)cc1N1CCOCC1,5.68%
8,Cc1ccsc1C(=O)C1CCCN(Cc2cnc(N3CCCC3)s2)C1 (stereo not shown),3.05%
9,COc1ccc(CNCc2c(O)c(Cl)cc3c(C)c(C)c(=O)oc23)c(OC)c1.Cl,3.03%
10,CCOC(=O)COn1c(=O)c(-c2ccc(OC)cc2)[n+]([O-])c2ccccc21,11%
11,COc1cc([N+](=O)[O-])ccc1NC(=O)CCCOc1cccc(C)c1,5.93%
12,COc1cccc(C2NC(C)(C(=O)O)C3C(=O)N(C(C)C)C(=O)C23)c1O (stereo not shown),0.0996%
13,CCOC(=O)NC1(C(F)(F)F)NC(=O)N(c2cccc(C(F)(F)F)c2)C1=O (stereo not shown),4.97%
14,O=C(O)c1ccccc1N=Nc1c(O)[nH]c(=O)[nH]c1=O,13%
15,COc1ccccc1N1CC(C(=O)Nc2nnc(SCC(=O)N3CCCC3)s2)CC1=O (stereo not shown),4.54%
16,O=C(Cn1cncn1)N/N=C/c1ccccc1Cl,17.9%
17,CCOC(=O)c1ccccc1NC(=O)c1c(O)[nH]c(=O)[nH]c1=O,7.71%
18,CC(C)C[C@H]1CN=C(Nc2ccccc2)N1CC1CCCC1,1.51%
19,CCOC(=O)C1CCN(C(=O)c2ccccc2N(C)S(C)(=O)=O)CC1,16.7%
20,O=C(COC(=O)C1CCC(=O)N1)Nc1ccc(Oc2ccccc2)cc1 (stereo not shown),9.4%
21,O=C(COC(=O)c1cc(NS(=O)(=O)c2cccs2)ccc1O)Nc1ccc(F)c(F)c1F,14.4%
22,COc1ccc(C(=O)NC2CC2)cc1OC1CCN(C(C)CSC)CC1 (stereo not shown),-54.2%
